According to article PMC4336329 (PLoS ONE, 2015):
In all, about 310,000 compounds went through this assay and about 2,200 (0.71%) showed an effect of 50% or more. Effects have a minus sign here. The list shows a part of the results.

These compounds were tested against human ether-à-go-go-related gene (hERG) potassium channel (human, UniProt Q12809) (assay: primary screen, population patch clamp on CHO cells stably expressing hERG).
human ether-à-go-go-related gene (hERG) potassium channel, sequence (Q12809 whole entry, looked up): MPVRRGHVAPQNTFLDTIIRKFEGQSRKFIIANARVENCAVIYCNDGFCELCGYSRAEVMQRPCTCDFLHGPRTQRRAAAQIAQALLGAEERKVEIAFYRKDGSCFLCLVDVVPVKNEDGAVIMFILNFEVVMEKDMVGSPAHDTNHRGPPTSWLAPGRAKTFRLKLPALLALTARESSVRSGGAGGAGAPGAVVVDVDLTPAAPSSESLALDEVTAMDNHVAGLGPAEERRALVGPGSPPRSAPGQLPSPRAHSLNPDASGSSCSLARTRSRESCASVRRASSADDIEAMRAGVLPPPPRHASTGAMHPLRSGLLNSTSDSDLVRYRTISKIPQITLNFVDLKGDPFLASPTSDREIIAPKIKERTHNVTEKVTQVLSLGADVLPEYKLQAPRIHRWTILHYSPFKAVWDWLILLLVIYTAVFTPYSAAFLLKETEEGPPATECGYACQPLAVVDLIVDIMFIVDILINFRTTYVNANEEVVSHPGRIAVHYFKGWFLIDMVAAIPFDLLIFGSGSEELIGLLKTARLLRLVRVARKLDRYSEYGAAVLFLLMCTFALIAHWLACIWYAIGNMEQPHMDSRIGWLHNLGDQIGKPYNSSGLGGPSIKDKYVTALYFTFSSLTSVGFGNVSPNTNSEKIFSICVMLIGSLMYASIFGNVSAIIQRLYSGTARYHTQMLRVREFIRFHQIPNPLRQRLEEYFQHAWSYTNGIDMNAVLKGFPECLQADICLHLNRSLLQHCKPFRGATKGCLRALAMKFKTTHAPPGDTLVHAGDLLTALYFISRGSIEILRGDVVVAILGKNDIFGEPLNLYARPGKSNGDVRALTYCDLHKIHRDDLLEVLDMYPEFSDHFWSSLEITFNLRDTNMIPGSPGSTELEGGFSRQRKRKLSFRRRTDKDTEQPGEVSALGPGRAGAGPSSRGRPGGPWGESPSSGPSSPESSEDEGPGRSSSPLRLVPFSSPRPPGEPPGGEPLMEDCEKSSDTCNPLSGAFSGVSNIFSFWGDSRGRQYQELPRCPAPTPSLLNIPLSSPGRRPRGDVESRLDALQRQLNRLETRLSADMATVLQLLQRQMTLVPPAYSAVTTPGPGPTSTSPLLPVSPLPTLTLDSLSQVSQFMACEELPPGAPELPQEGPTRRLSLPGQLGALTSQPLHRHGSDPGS

SMILES | hERG current change (%, negative = inhibition) at 1uM [%]
Brc1ccc(CNCCCSc2ncccn2)cc1.Cl | 6.81
C=CCNC(=O)NC(=O)COC(=O)/C(C#N)=C/c1ccc(OC)cc1 | 9.72
O=C(CC(=O)c1ccccc1[N+](=O)[O-])c1ccccc1 | 12.7
Cc1[nH]n(-c2ccccc2)c(=O)c1/C=N\NC(=O)C1COc2ccccc2O1 (stereo not drawn) | 12.4
O=C(NNc1cccc(Cl)n1)c1c(F)cccc1F | 13.1
Cc1cccc(-n2c(C)nc3cc(C(=O)NCc4ccc5c(c4)OCO5)ccc32)c1 | 3.92
COc1ccc(NC(=O)Cc2c(F)cccc2Cl)cc1 | 17
CCC(=NCc1ccc(Cl)c(Cl)c1)c1nc(-c2ccco2)oc1O | 18.5
COC(=O)c1cc(NC(=O)CSC2=NCCS2)cc(C(=O)OC)c1 | 6.21
O=C(Nc1ccccc1C(=O)NCCCn1ccnc1)c1ccccc1 | -2.45
C=CCO/N=C/C1=C(O)C(C(=O)OC)C(C)(C)CC1=O (stereo not drawn) | -1.13
CCOC(=O)c1c(NC(=O)Cn2cnc([N+](=O)[O-])n2)sc2c1CCC(C)C2 (stereo not drawn) | 9.35
CC(=O)c1c(C)[nH]c(C(=O)CN2C(=O)NC(C)(c3ccc4c(c3)OCCO4)C2=O)c1C (stereo not drawn) | 5.11
CCn1nc(C)c(/C=C/C(=O)Nc2ccc(C)cc2C)c1C | 20.5
CCOc1ccccc1NC(=O)NNS(=O)(=O)c1cc(OC)ccc1OC | 14.3
CS(=O)(=O)N(CC(=O)N1CCCCC1)Cc1ccc(Cl)cc1 | 5.04
COc1ccc(-c2nc3cc(NC(=S)NC(=O)Cc4ccccc4)ccc3o2)cc1 | 14.1
CC(=O)c1c(C)[nH]c(C(=O)/C(C#N)=C/c2cccc(C)c2)c1C | 12.6
O=C(C1CCCN(c2ncnc3c2nc2n3CCCCC2)C1)N1CCN(c2ccc(F)cc2)CC1 (stereo not drawn) | -1.48
CCOC(=O)Cc1csc(NC(=S)NC(=O)c2ccc([N+](=O)[O-])cc2)n1 | 12.3
CCOC(=O)COc1c(/C=N\O)cc(Cl)cc1OC | -0.55
COc1cc2c(cc1OC)C(C(=O)N(C)Cc1ccccc1)C(c1cccnc1)N(C)C2=O (stereo not drawn) | 1.04
Cc1ccn2c(=O)c(NC(=O)c3cccs3)c(C)nc2c1 | 10.3
COCCNC(=O)NC(=O)COC(=O)c1cc([N+](=O)[O-])ccc1Sc1nc(C)cs1 | 8.78
Cc1oc(-c2cccc(Cl)c2)nc1CN1CCC(C(=O)NC2CC2)CC1 | 14.6
Cc1cccc(NC(=O)c2cc(-c3ccc(C)s3)nc3ccccc23)n1 | 8.15
O=c1c2ccccc2nc(-c2ccccc2)n1Cc1ccccc1 | 12

SMILES | hERG current change (%, negative = inhibition) at 1uM [%]
Cc1ccc(NC2=C/C(=N/S(=O)(=O)c3cccs3)c3ccccc3C2=O)cc1C | 12.4
Cc1ccc(S(=O)(=O)C2CCCCC2=O)cc1 (stereo not drawn) | 13.4
COc1ccc(/C=C2\NC(=S)N(CC3CCCO3)C2=O)c(OC)c1C (stereo not drawn) | 8.6
Cn1c(SCC(=O)Nc2ccc(NC(=O)c3cccs3)cc2)nnc1-c1ccncc1 | 1.87
CCOc1cc(N2CCOCC2)c(OCC)cc1NC(=O)COc1ccccc1[N+](=O)[O-] | 6.81
CC(C)Cc1nnc(NC(=O)CCNC(=O)c2ccccc2Cl)s1 | 9.84
CCN(CC)CCNC(=O)C(=O)Nc1cc2c3c(c1)CC(=O)N3CCC2 | 23.5
CC1Cc2ccccc2N1C(=O)CN1C(=O)C(=O)N(Cc2ccccc2)C1=O (stereo not drawn) | 14.1
COc1ccc(-c2cc(C)no2)cc1S(=O)(=O)NCCCN1CCN(c2ccccc2)CC1 | -18.8
CN(Cc1ccccc1)C(=O)CN1C(=O)NC(C)(c2ccc(C(C)(C)C)cc2)C1=O (stereo not drawn) | 11
O=C(NC1CCCC1)c1n[nH]c2ccccc12 | 12
CCOC(=O)Nc1cc(OC)c(OC)cc1Cc1nccc2cc(OC)c(OC)cc12 | -1.65
COc1ccc(OC)c(NC(=O)CSc2nnc(Cc3cccn3C)n2CCc2ccccc2)c1 | -2.49
Cc1ccc2nc(SCC(=O)NCc3ccc(S(N)(=O)=O)cc3)[nH]c2c1 | 14.4
Cc1nnc(NC(=O)CN2CCN(Cc3c(Cl)cccc3Cl)CC2)s1 | 11.9
Cc1ccc(NC(=O)c2cc(S(=O)(=O)Nc3ccc(C)cc3)cs2)cc1 | 14.2
COc1ccc(Cl)cc1NC(=S)N(CCCN1CCOCC1)Cc1cn(C)c2ccccc12 | 8.42
Cc1cc(Cl)c(OCCCN2CCCCC2)c(Br)c1.O=C(O)C(=O)O | -33.2
Cc1ccc(C(=O)COC(=O)CCC(=O)NC2CCCCC2)cc1[N+](=O)[O-] | 9.1
Cl.c1ccc2c(Nc3nc(N4CCOCC4)c4ccccc4n3)cccc2c1 | 20
O=C(C1CCC1)N1CCN(c2ccc(C(F)(F)F)cc2[N+](=O)[O-])CC1 | -24.6
CC(=O)Oc1c(S(=O)(=O)c2ccc(C)cc2)c(C)nn1-c1ccccc1 | -2.15
O=c1c(N=Nc2ccc(O)cc2)c(-c2ccccc2)[nH]n1-c1ccc([N+](=O)[O-])cc1 | 9.87
O=C(CSCc1ccc([N+](=O)[O-])cc1)Nc1ccc(S(=O)(=O)N2CCCCCC2)cc1 | 10.8
COc1ccc(OC)c(NC(=O)C2CCCN(S(=O)(=O)c3cccc4nonc34)C2)c1 (stereo not drawn) | 8.05
Cc1ccc(CN2CCN(C(=O)C3CCC3)CC2)cc1 | 19.5
Cc1ccc2cc3c(NC(=O)c4cccnc4)nn(C)c3nc2c1 | 14.9
